# Measurements: PubChem BioAssay AID1347428 (National Center for Advancing Translational Sciences (NCATS), 2020)
# The whole screen tested about 91,000 compounds, of which about 290 (0.32%) were called active. Inconclusive means that the source gave no clear call. Such entries were picked first, then a sample of the others. The call rests on the fitted dose curve; in most records, active means well fitted inhibition curve with a large enough effect; inconclusive means small, poorly fitted or top-dose-only effect; inactive means no such curve, though single readings can be large or run the other way. A potency beside an inconclusive call is a rough fit, not a confirmed value.
# Target: Single-stranded DNA cytosine deaminase (Homo sapiens) (UniProt Q9GZX7)
# Chain of UniProt Q9GZX7 (Q9GZX7 whole entry, looked up): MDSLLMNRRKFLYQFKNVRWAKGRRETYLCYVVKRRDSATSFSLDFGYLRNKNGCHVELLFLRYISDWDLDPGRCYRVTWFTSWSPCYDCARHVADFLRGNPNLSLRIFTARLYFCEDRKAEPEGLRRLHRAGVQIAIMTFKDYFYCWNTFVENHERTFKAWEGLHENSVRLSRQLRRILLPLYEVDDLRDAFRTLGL
# Test: Primary qHTS assay for inhibitors of Activation Induced Cytidine Deaminase (AID): AID signal; further: nearly all actives have a fitted effect of over 25% in size
# Details: AID deamination FRET fluorescence, UDG-coupled, 4 h; series mostly up to 115 µM
# Potency means the concentration at half of the fitted maximal effect; tags describe the fitted curve by direction and shape.
row,Structure (SMILES),Potency
1,COc1cc(C(=O)OCc2cc(=O)n3ccsc3n2)cc(OC)c1OC,"inconclusive: 100 µM [inhibitor, single point]"
2,CCN(C(=O)c1nn(C)c2c1CSc1ccccc1-2)c1cccc(C)c1,"inconclusive: 39.8 µM [inhibitor, partial curve, poor fit]"
3,Cc1c(-c2cccc(NC(=O)Cc3ccccc3)c2)nc2ncccn12,"inconclusive: 25.1 µM [inhibitor, single point]"
4,Cc1ccc(I)c(C(=O)NC(C)(C)C)c1,inactive
5,CCOC(=O)c1cnn(-c2cccc(Cl)c2)c1C1CCN(C(=O)OC(C)(C)C)CC1,"inconclusive: 44.7 µM [inhibitor, partial curve, poor fit]"
6,CCOC(=O)C1=C(CN(CC)Cc2ccccc2)NC(=O)NC1c1ccc(Cl)cc1 (stereo not given),"inconclusive: 44.7 µM [inhibitor, partial curve, poor fit]"
7,COc1ccc(Cl)cc1NC(=O)N1CCC2(CC1)Oc1ccccc1C(=O)N2Cc1ccc(F)cc1,"inconclusive: 50.1 µM [inhibitor, partial curve]"
8,COc1cccc(-c2nn(C)c3sc(C(=O)N4CCN(c5cccc(C(F)(F)F)c5)CC4)cc23)c1,"inconclusive: 25.1 µM [inhibitor, full curve, poor fit]"
9,Cc1ccc(Nc2c3c(nc4ccccc24)CCC3)cc1F,"inconclusive: 39.8 µM [inhibitor, partial curve, poor fit]"
10,Cc1ccccc1-n1cnnc1SCCC(=O)Nc1ccc(S(=O)(=O)N(C)C)cc1,inactive
11,NNCCc1ccccc1,active: 44.7 µM
12,CCOC(=O)c1c(S(=O)(=O)N2CCN(c3cc(Cl)ccc3C)CC2)c(C)n(C)c1C,"inconclusive: 31.6 µM [inhibitor, single point]"
13,CC(C)C(C)(C#N)NC(=O)CCc1ccccc1 (stereo not given),inactive
14,O=C(CSc1nnc(-c2ccc(S(=O)(=O)N3CCCCCC3)cc2)o1)c1ccc(F)cc1,inactive
15,Cc1ccc(C(C)NC(=O)Nc2ccc(Cl)cc2F)c(C)c1 (stereo not given),active: 14.1 µM
16,COc1cccc(NC(=O)CN(C)CC(=O)Nc2ccc(C)cc2)c1,inactive
17,CN1CCN(c2ccc(-c3nc(-c4ccccc4)no3)cc2[N+](=O)[O-])CC1,"inconclusive: 50.1 µM [inhibitor, partial curve, poor fit]"
18,COc1ccc(N2CC(c3nc(-c4ccccc4C)no3)CC2=O)cc1Cl (stereo not given),"inconclusive: 39.8 µM [inhibitor, single point]"
19,NNC(=O)Nc1ccccc1,inactive
20,CCOC(=O)c1cccc(NC(=O)Cn2cnc3nc4c(cc3c2=O)CCCC4)c1,"inconclusive: 79.4 µM [inhibitor, partial curve]"

row,Structure (SMILES),Potency
1,CCCCN(CC)CCNC(=O)c1nn(-c2ccc(OC)cc2)c(=O)c2c1c1ccccc1n2C,"inconclusive: 35.5 µM [inhibitor, single point]"
2,CCC1=Nc2cc(C(=O)N3CCC(C)CC3)ccc2Sc2ccc(C)cc21,active: 31.6 µM
3,CCOc1ccc(NC(=O)C(CC(C)C)N2Cc3ccccc3C2=O)cc1 (stereo not given),"inconclusive: 15.8 µM [inhibitor, full curve, poor fit]"
4,Cc1nn(-c2nc(CC(=O)Nc3cccnc3)cs2)c(C)c1Cc1ccccc1,inactive
5,Cc1cccc(C(=O)Nc2c(C(=O)N3CCN(c4ccc(F)cc4)CC3)oc3ccccc23)c1,"inconclusive: 39.8 µM [inhibitor, single point]"
6,CCN(CC)c1cc(C)c2cc(NC(=O)c3cc(OC)cc(OC)c3)ccc2n1,"inconclusive: 31.6 µM [inhibitor, partial curve, poor fit]"
7,COCc1cc(C)nc2sc3c(c12)NC(c1ccccc1C(=O)O)N(c1cccc(C(F)(F)F)c1)C3=O (stereo not given),"inconclusive: 79.4 µM [inhibitor, partial curve, poor fit]"
8,O=c1c2cnc(N3CCc4ccccc4C3)nc2ccn1-c1ccccc1F,"inconclusive: 28.2 µM [inhibitor, partial curve, poor fit]"
9,CCN1CCSc2ccc(C(=O)NCc3ccc(F)cc3)cc21,"inconclusive: 15.8 µM [inhibitor, partial curve, poor fit]"
10,CCOC(=O)Nc1ccc2c(CN3CCC(C(N)=O)CC3)cc(=O)oc2c1,inactive
11,O=C(Nc1cccc2cccnc12)c1cccc(C(=O)Nc2cccc3cccnc23)c1,"inconclusive: 31.6 µM [inhibitor, full curve]"
12,CCc1ccc(Cn2nnc3c(=O)[nH]c(C4CCCN(C(=O)c5cccc(Cl)c5)C4)nc32)cc1 (stereo not given),"inconclusive: 63.1 µM [inhibitor, partial curve, poor fit]"
13,Cc1ccc(-n2cnc3cc(C(=O)NC4CCCCCC4)ccc32)c(C)c1,"inconclusive: 44.7 µM [inhibitor, partial curve, poor fit]"
14,Cc1ccc(C(=O)c2cn(Cc3cc(C)ccc3C)c3nc(C)ccc3c2=O)cc1,"inconclusive: 50.1 µM [inhibitor, partial curve, poor fit]"
15,CCCCCCNC(=O)CCc1c(C)nc2nc(-c3cc(OC)cc(OC)c3)nn2c1C,"inconclusive: 50.1 µM [inhibitor, partial curve, poor fit]"
16,CCOC(=O)N1CCN(Cc2nc3cc(NC(=O)c4ccc(F)cc4)ccc3n2C(C)C)CC1,"inconclusive: 44.7 µM [inhibitor, partial curve, poor fit]"
17,COc1ccc(OC)c(NC(=O)CSc2c3c(nc4cc(Cl)ccc24)CCCC3)c1,"inconclusive: 31.6 µM [inhibitor, partial curve, poor fit]"
18,Cc1ccc(Cn2c(CN3CCC(C(=O)NCc4cccnc4)CC3)cc3ccccc32)cc1,"inconclusive: 35.5 µM [inhibitor, partial curve]"
19,Cc1ccccc1Cn1c(-c2cccs2)nc2ccccc21,"inconclusive: 12.6 µM [inhibitor, full curve]"
20,COc1ccc(-c2noc(CN(C(=O)c3ccccc3Cl)C(C)C)n2)cc1,"inconclusive: 79.4 µM [inhibitor, partial curve, poor fit]"
